# Measurements taken from a collection of fitness landscapes (doi:10.1126/science.1257360).
# The other results are listed elsewhere or left out.
# B1: PhoQ; a variant is named by its letters at X, in order, P23837 (parent)
# chain: MKKLLRLFFPLSLRVRFLLATAAVVLVLSLAYGMVALIGYSVSFDKTTFRLLRGESNLFYTLAKWENNKLHVELPENIDKQSPTMTLIYDENGQLLWAQRDVPWLMKMIQPDWLKSNGFHEIEADVNDTSLLLSGDHSIQQQLQEVREDDDDAEMTHSVAVNVYPATSRMPKLTIVVVDTIPVELKSSYMVWSWFIYVLSANLLLVIPLLWVAAWWSLRPIEALAKEVRELEEHNRELLNPATTRELTSLVRNLNRLLKSERERYDKYRTTLTDLTHSLKTPLXXLQXXLRSLRSEKMSVSDAEPVMLEQISRISQQIGYYLHRASMRGGTLLSRELHPVAPLLDNLTSALNKVYQRKGVNISLDISPEISFVGEQNDFVEVMGNVLDNACKYCLEFVEISARQTDEHLYIVVEDDGPGIPLSKREVIFDRGQRVDTLRPGQGVGLAVAREITEQYEGKIVAGESMLGGARMEVIFGRQHSAPKDE
# Variants of: B1
# Experiment: enrichment ratio after two sorts for PhoP signalling (ratio (wild type AVST 3.29)); higher = more functional
# Conditions: with PhoP (E. coli)
row,Variant,enrichment ratio
1,HMSV,≤ 0.25
2,HVKR,≤ 0.25
3,FLLP,≤ 0.25
4,SNAP,≤ 0.25
5,TPGD,≤ 0.25
6,FVFG,≤ 0.25
7,WTYH,≤ 0.25
8,IPKE,≤ 0.25
9,FMSY,≤ 0.25
10,RFGC,≤ 0.25
11,NLYP,≤ 0.25
12,MSAR,≤ 0.25
13,MVTA,≤ 0.25
14,NGPP,≤ 0.25
15,VHNV,≤ 0.25
16,ECRD,≤ 0.25
17,MECF,≤ 0.25
18,VYCR,≤ 0.25
19,EYRA,≤ 0.25
20,YEWF,≤ 0.25
21,YYTC,≤ 0.25
22,PYMC,≤ 0.25
23,SQQW,≤ 0.25
24,GFTE,≤ 0.25
25,ICPS,≤ 0.25

row,Variant,enrichment ratio
1,GQYQ,≤ 0.25
2,GEVG,8.67
3,FSSH,≤ 0.25
4,ICGT,≤ 0.25
5,SSWH,≤ 0.25
6,FLWS,≤ 0.25
7,GNAT,≤ 0.25
8,ACAT,0.287
9,WPAA,≤ 0.25
10,AFSH,≤ 0.25
11,ATEP,≤ 0.25
12,NMPF,≤ 0.25
13,MHIW,≤ 0.25
14,GLTT,≤ 0.25
15,QDEP,≤ 0.25
16,FPFG,≤ 0.25
17,KTTT,≤ 0.25
18,LKMM,≤ 0.25
19,HNHL,≤ 0.25
20,AMYN,≤ 0.25
21,RENC,≤ 0.25
22,SSNC,≤ 0.25
23,GHWI,≤ 0.25
24,ELNL,≤ 0.25
25,FFFC,≤ 0.25

row,Variant,enrichment ratio
1,LLTN,0.383
2,YPNT,≤ 0.25
3,INHM,≤ 0.25
4,IFFQ,≤ 0.25
5,AHIN,≤ 0.25
6,WHCQ,≤ 0.25
7,EHLI,≤ 0.25
8,VKDL,≤ 0.25
9,IWGL,≤ 0.25
10,QCKW,≤ 0.25
11,RAPN,≤ 0.25
12,FHAD,≤ 0.25
13,LTAE,≤ 0.25
14,MDDS,≤ 0.25
15,MPYW,≤ 0.25
16,LKLM,≤ 0.25
17,FPQL,≤ 0.25
18,YLIF,≤ 0.25
19,MNTH,≤ 0.25
20,YGPI,≤ 0.25
21,MGPY,≤ 0.25
22,IDDY,≤ 0.25
23,IAFD,≤ 0.25
24,PWET,≤ 0.25
25,PDSF,≤ 0.25

row,Variant,enrichment ratio
1,EVND,≤ 0.25
2,TPAH,≤ 0.25
3,IAVP,≤ 0.25
4,IVMN,≤ 0.25
5,HWKF,≤ 0.25
6,EAII,≤ 0.25
7,YYMN,≤ 0.25
8,NFYG,≤ 0.25
9,VMGT,≤ 0.25
10,SLDK,≤ 0.25
11,DAHL,0.257
12,RIVV,≤ 0.25
13,YAWF,≤ 0.25
14,QCGW,≤ 0.25
15,LMDY,≤ 0.25
16,DTRK,≤ 0.25
17,MELQ,3.81
18,KMSC,≤ 0.25
19,ICDQ,≤ 0.25
20,SIVH,9.21
21,FLTI,≤ 0.25
22,QVKL,≤ 0.25
23,RIFK,1.58
